Results taken from the antibiotic and cytotoxicity screens of Wong et al. (2023).
The other results are listed elsewhere or left out.

Tests used:
HSkMC = human skeletal muscle cells; experiment: cytotoxicity call (relative viability < 0.9); details: 10 µM
HepG2 = experiment: cytotoxicity call (relative viability < 0.9); details: 10 µM
S. aureus RN4220 = experiment: growth inhibition call (relative growth <= 0.2); details: 50 µM

Structure (SMILES) | cytotoxicity call (HSkMC) | cytotoxicity call (HepG2) | growth inhibition call (S. aureus RN4220)
Cn1cnc(S(=O)(=O)N2CC[C@H](O)[C@@H]2Cc2cnn(C)c2)c1 | inactive | inactive | inactive
C[C@@H]1CN([C@H](C)CO)S(=O)(=O)c2ccc(C3=CCCCC3)cc2O[C@@H]1CN(C)S(=O)(=O)c1cn(C)cn1 | inactive | inactive | inactive
CN1CCN(C(=O)C[C@@H]2CC[C@@H](NC(=O)c3ccc4c(c3)OCO4)[C@@H](CO)O2)CC1 | inactive | inactive | inactive
Cc1onc(-c2c(Cl)cccc2Cl)c1C(=O)NC1C(=O)N2C1SC(C)(C)C2C(=O)[O-].[Na+] (stereo unspecified) | inactive | inactive | active
C[C@@H]1CCCCO[C@@H](CN(C)CC2CCCCC2)[C@H](C)CN([C@@H](C)CO)C(=O)c2cc(NC(=O)c3ccncc3)ccc2O1 | inactive | inactive | inactive
CC(C)(C)N.CCCC(NC(C)C(=O)N1C(C(=O)O)CC2CCCCC21)C(=O)OCC (stereo unspecified) | inactive | inactive | inactive
Cn1nccc1-c1cccc(CN)c1 | inactive | inactive | inactive
N[C@@H](C[C@@H](F)C(=O)O)C(=O)O | inactive | inactive | inactive
C[C@H]1CN([C@@H](C)CO)C(=O)Cc2cc(NC(=O)C3CC3)ccc2O[C@H]1CN(C)Cc1ccc(C(=O)O)cc1 | inactive | inactive | inactive
C[C@@H]1CCCCO[C@H](CN(C)C(=O)Cc2ccccc2)[C@@H](C)CN([C@H](C)CO)C(=O)c2cc(NC(=O)Cc3ccccc3)ccc2O1 | inactive | inactive | inactive
C=CCCCCCCCCCCCc1ccco1 | inactive | inactive | inactive
C[C@H](CO)N1C[C@H](C)[C@H](CN(C)Cc2ccc(Cl)c(Cl)c2)Oc2ccc(NC(=O)NC3CCCCC3)cc2CC1=O | inactive | inactive | inactive
COc1ccc(-c2cnc3c(c2)C(=O)N([C@H](C)CO)C[C@H](C)[C@@H](CN(C)C(=O)Cc2cccnc2)O3)cc1 | inactive | inactive | inactive
C[C@@H]1CCCCO[C@@H](CN(C)Cc2ccc(Cl)c(Cl)c2)[C@H](C)CN([C@@H](C)CO)C(=O)c2cc(NS(=O)(=O)c3ccc(Cl)cc3)ccc2O1 | active | active | inactive
Cc1cc(C)c2cc3c(nc2c1)NCC3 | inactive | inactive | inactive
C[C@H](CO)N1C[C@H](C)[C@H](CN(C)Cc2ccccc2)Oc2ccc(NC(=O)CCN3CCOCC3)cc2C1=O | inactive | inactive | inactive
C[C@@H]1CCCCO[C@@H](CN(C)Cc2ccc(C(F)(F)F)cc2)[C@@H](C)CN([C@H](C)CO)C(=O)c2cc(NS(=O)(=O)c3cccs3)ccc2O1 | inactive | active | inactive
COc1ccc(S(=O)(=O)N(C)C[C@H]2Oc3ccc(NC(=O)C4CC4)cc3C(=O)N([C@H](C)CO)C[C@H]2C)cc1 | inactive | inactive | inactive
C[C@@H]1CCCCO[C@H](CN(C)C(=O)Cc2ccccc2)[C@H](C)CN([C@@H](C)CO)C(=O)c2cc(NC(=O)Nc3ccccc3)ccc2O1 | inactive | inactive | inactive
COc1ccc(NC(=O)N(C)C[C@@H]2OCCCC[C@H](C)Oc3ccc(NC(=O)c4ccncc4)cc3C(=O)N([C@H](C)CO)C[C@@H]2C)cc1 | inactive | inactive | inactive
C[C@@H]1CN([C@@H](C)CO)C(=O)c2cccc(NS(=O)(=O)c3ccc(Cl)cc3)c2O[C@@H]1CN(C)Cc1ccc(C(F)(F)F)cc1 | inactive | active | inactive
C[C@H](CO)N1C[C@H](C)[C@H](CN(C)Cc2ccc(C(=O)Nc3ccccc3N)cc2)Oc2ccc(NC(=O)Nc3ccc4c(c3)OCO4)cc2C1=O | inactive | inactive | inactive
CN1CCN(C(=O)C[C@H]2CC[C@H]3[C@@H](COC[C@H](O)CN3C(=O)C3CCOCC3)O2)CC1 | inactive | inactive | inactive
Cn1c(=O)c2c(nc(Sc3nnc(N)s3)n2C)n(C)c1=O | inactive | inactive | inactive
C[C@@H]1CN([C@H](C)CO)C(=O)Cc2cc(NC(=O)CCCN(C)C)ccc2O[C@@H]1CN(C)S(=O)(=O)c1ccc(F)cc1 | inactive | inactive | inactive
C[C@@H]1CCCCO[C@H](CN(C)Cc2ccc3c(c2)OCO3)[C@@H](C)CN([C@@H](C)CO)C(=O)c2cc(NC(=O)Nc3ccccc3)ccc2O1 | inactive | inactive | inactive
Cc1ccccc1S(=O)(=O)N1C[C@@H](O)COC[C@H]2O[C@H](CC(=O)NCCc3ccccc3)CC[C@@H]21 | inactive | inactive | inactive
